Measured values: PubChem BioAssay AID1476 (National Center for Advancing Translational Sciences (NCATS), 2009)
“And” between values parts separate entries of the source, which are not always exact repeats. Equal entries are not always repeated. Among all 200,000 compounds or so, about 4,500 (2.2%) were called active. The inconclusive results got no clear call from the source; some entries with a clear call stand among them for comparison. Calls follow the shape of the dose curve; as a rule, active = well fitted inhibition curve with a large enough effect; inconclusive = small, poorly fitted or top-dose-only effect, or effect the other way; inactive = flat fitted curve, though single readings scatter. Where the call is inconclusive, the potency comes from a doubtful curve fit.

molecular target: Cruzipain (Trypanosoma cruzi) (UniProt P25779); assay: qHTS Assay for Promiscuous and Specific Inhibitors of Cruzain (without detergent); conditions: purified cruzain, Z-FR-AMC fluorescence, no detergent; also: nearly all actives have a fitted effect of over 40% in size;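 as to max response, negative = inhibition: plate controls were enzyme without inhibitor for no effect and buffer without enzyme for full effect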
Chain of UniProt P25779 (P25779 whole entry, looked up): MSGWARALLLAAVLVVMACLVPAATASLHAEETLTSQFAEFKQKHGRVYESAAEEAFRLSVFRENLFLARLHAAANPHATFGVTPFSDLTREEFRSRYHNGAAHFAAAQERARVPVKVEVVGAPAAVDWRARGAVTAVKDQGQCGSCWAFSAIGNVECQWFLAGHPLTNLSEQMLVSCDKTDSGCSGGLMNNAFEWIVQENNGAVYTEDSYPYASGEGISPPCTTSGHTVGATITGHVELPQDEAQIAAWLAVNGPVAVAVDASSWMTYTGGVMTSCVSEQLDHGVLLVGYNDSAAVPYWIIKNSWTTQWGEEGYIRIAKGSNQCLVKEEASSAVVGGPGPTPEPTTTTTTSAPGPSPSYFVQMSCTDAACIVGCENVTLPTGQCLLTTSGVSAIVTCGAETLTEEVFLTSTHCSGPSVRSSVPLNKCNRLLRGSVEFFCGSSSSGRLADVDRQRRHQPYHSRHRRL
How it was run: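 Purified cruzain at 1.5 nM, pre-incubated 15 min with compound at room temperature in 100 mM sodium acetate pH 5.5, 5 mM DTT, 0.00005% Triton X-100. Reaction started with 2 uM Z-FR-AMC; AMC fluorescence increase over 60 s gives rate.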
Potency is read from the fitted curve at half-maximal effect; tags tell the direction and shape of the fitted curve.

SMILES | Potency | max response, negative = inhibition
COC(=O)C1=NN(c2ccccc2)C2(S1)S/C(=C\c1ccccc1)C(=O)N2c1ccccc1 (stereo unspecified) | active: 10 µM | 
CC(=O)Nc1ccc(NC(=O)Nc2sc3nc4n(c(=O)c3c2C)CCC(C)CC4)cc1 (stereo unspecified) | inconclusive: 10 µM [activator, partial curve] | 
CCCOc1ccc(N2C(=O)CC(N3CCN(c4ccccc4F)CC3)C2=O)cc1 (stereo unspecified) | inconclusive: 31.6 µM [activator, single point] | 
COc1ccc(/C=C/C(=O)Oc2cccc(/C=N/NC(=O)COc3c(C)cccc3C)c2)cc1 | active: 15.8 µM | 
O=C(Cn1c(=O)oc2cc(S(=O)(=O)NCc3ccccc3)ccc21)NCc1ccc(F)cc1 |  | inactive: -0.98%
CCc1nc(N)c(C#N)c(-c2cccc3ccccc23)c1C | inconclusive: 39.8 µM [inhibitor, single point] | 
CCOc1ccc(N2C(=O)CC(S/C(N)=N/N=C/c3cccs3)C2=O)cc1 (stereo unspecified) | active: 10 µM | 
CCOc1ccc(-c2nnn(CC(=O)c3ccc4c(c3)OCCO4)n2)cc1 | inconclusive: 25.1 µM [inhibitor, single point] | 
Nc1nc(N)c2[nH]c(CNc3ccc(C(=O)O)cc3)nc2n1 | active: 3.98 µM | 
COc1cc(C2Oc3cc(C4Oc5cc(O)cc(O)c5C(=O)C4O)ccc3OC2CO)ccc1O (stereo unspecified) | inconclusive: 25.1 µM [inhibitor, single point] | 
O=C(Nc1nnc(S(=O)(=O)N2CCCC2)s1)c1ccccc1Cl | inconclusive: 6.31 µM [activator, single point] | 
CCCCCCCCCCCCCCCCCC(=O)NCC(COP(=O)([O-])OCC[N+](C)(C)C)OCC (stereo unspecified) | inconclusive: 3.98 µM [activator, full curve] | 
COc1ccccc1NC(=O)CSc1oc(-c2cccs2)nc1S(=O)(=O)c1ccc(C)cc1 | inconclusive: 31.6 µM [inhibitor, single point] | 
CCOC(=O)c1cnc(-n2nc(C)cc2C)nc1NNc1cc(C)nc(-c2ccccc2)n1 | inconclusive: 20 µM [activator, partial curve] | 
COc1ccc(CCNC(=O)CSc2nc3ccccc3nc2Cc2ccc(C)cc2)cc1OC | inconclusive: 31.6 µM [activator, single point] | 
Cc1cnc(NC(=O)CCCSc2nc3ccccc3s2)s1 | inconclusive: 31.6 µM [inhibitor, single point] | 
CCc1nnc(NC(=O)CSc2nnc(-c3ccc(S(=O)(=O)N(CC)CC)cc3)n2CC)s1 | inconclusive: 20 µM [activator, single point] | 
COc1ccc(OC)c(-c2cc(C(=O)N3CCN(c4ncccn4)CC3)c3ccccc3n2)c1 | inconclusive: 39.8 µM [activator, single point] | 
CCN1CCN(c2nc3ccccc3nc2C(C#N)S(=O)(=O)c2ccc(C)c(C)c2)CC1 (stereo unspecified) | inconclusive: 39.8 µM [activator, single point] | 
O=C(c1ccc(Cl)cc1)N1CCC(O)(CSc2ccc(Cl)cc2)CC1 | inconclusive: 39.8 µM [activator, single point] | 
O=C(CC(NC(=O)c1ccccc1Cl)c1ccccc1)Nc1ccc2c(c1)OCO2 (stereo unspecified) | inconclusive: 39.8 µM [inhibitor, single point] | 

SMILES | Potency | max response, negative = inhibition
CC(C)NC(=O)Cn1c(=O)c2c(ncn2Cc2ccccc2)n(Cc2ccccc2)c1=O |  | inactive: -5.2%
COC(=O)[C@@]1(Cc2ccc(F)cc2)[C@H]2c3cc(C(=O)N(C)C)n(Cc4ccc(O)c(OC)c4)c3C[C@H]2CN1C(=O)c1ccccc1 | inconclusive: 25.1 µM [activator, partial curve] | 
CCc1c(O)cc(=O)n(-c2ccccc2)c1-c1ccccc1 |  | inactive: 5.16%
COc1ccccc1N1CCN(S(=O)(=O)c2cc(-c3cc(C)no3)ccc2C)CC1 |  | inactive: 29.8%
COc1ccc2c(=O)c3c(=O)n(Cc4ccco4)c(C(C)C)nc3oc2c1 | active: 31.6 µM | 
COc1ccc(C2C(C(=O)N3CCCCC3)CC(=O)N2c2ccc(OC)cc2)cc1 (stereo unspecified) |  | inactive: -4.41%
Cc1ccc(CCNC(=O)c2cc3sccc3n2Cc2ccc(Cl)cc2)cc1 | inconclusive: 39.8 µM [inhibitor, single point] | 
CCOC(=O)c1cc(-c2ccc(C)cc2)n(CC(=O)Nc2ccc(OC)c(Cl)c2)c1C |  | inactive: 9.4%
O=C(Nc1ccc(-c2nc3ccccc3s2)cc1)C1=COCCO1 | inconclusive: 39.8 µM [inhibitor, single point] | 
Cc1nn(CC(=O)NCc2cccc(F)c2)c(=O)c2c(C)n(-c3ccc(Cl)cc3)nc12 |  | inactive: 9.18%
COC(=O)[C@H](CC(C)C)NC(=O)N1CCN(c2cccc(C(F)(F)F)c2)CC1 | inconclusive: 39.8 µM [activator, single point] | 
Clc1ccc(C2=C3CCCCn4c(-c5ccccc5)c[n+](c43)C2)cc1 | inconclusive: 31.6 µM [inhibitor, single point] | 
COc1ccc(-c2nnc(SCC(=O)Oc3cccc(C)c3C)o2)cc1 | inconclusive: 25.1 µM [inhibitor, single point] | 
CCCNC(=O)c1c(N)n(-c2cccc(OC)c2)c2nc3ccccc3nc12 | inconclusive: 31.6 µM [activator, single point] | 
Cn1ccnc1Sc1nc2ccccc2nc1NS(=O)(=O)c1ccccc1 | inconclusive: 39.8 µM [activator, single point] | 
CCOC(=O)c1ccc(Nc2nc(C(=O)OCC)nc3ccccc23)cc1 | inconclusive: 31.6 µM [activator, single point] and inconclusive: 39.8 µM [activator, single point] | 
CCC(=O)Nc1cccc(-n2nnnc2SCC(=O)c2ccc(C)c(C)c2)c1 | inconclusive: 39.8 µM [inhibitor, single point] | 
CC(=O)Nc1nonc1-c1nc2ccccc2n1Cc1ccccc1 |  | inactive: -11.1%
CCOc1ccccc1CNC(=O)CSc1n[nH]c(-c2ccccc2Cl)n1 |  | inactive: -0.943%
CCc1ccc(S(=O)(=O)c2cn(C)c3cc(OC)c(OC)cc3c2=O)cc1 | inconclusive: 25.1 µM [activator, single point] | 
